Laboratory results from ChEMBL document CHEMBL4888484, “Replenishing the malaria drug discovery pipeline: Screening and hit evaluation of the MMV Hit Generation Library 1 (HGL1) against asexual blood stage Plasmodium falciparum ,using a nano luciferase reporter read-out” (2022).
The whole screen tested about 150,000 compounds, of which about 540 (0.36%) showed an effect of 50% or more. The list shows a part of the results.

Test system: Plasmodium falciparum
Assay: Primary screen in NF54 nanoGlo assay, in single point, at 2uM, 72h; a lower Z score goes with more inhibition
Type: functional, Erythrocyte
Conditions: timepoint 72 hour

| Compound | % Inhibition [%] | Z score |
| --- | --- | --- |
| O=c1c2cccc(F)c2ncn1C1(C2CCCC2)CC1 | -18 | 2.36 |
| COCC(=O)N1CCc2cc(NCc3ncc(Cl)s3)ccc21 | -11 | 1.16 |
| CCCn1nc(C(=O)N2CCCc3cccc(Cl)c32)ccc1=O | -8 | 1.47 |
| COc1cc(OC)nc(Oc2cccc3cccnc23)n1 | -9 | 1.08 |
| CC(=O)N1CCO[C@@H](CNc2nnc(C(C)(C)C)o2)C1 | -1 | 0.19 |
| Cc1cc(CNc2ncccc2F)on1 | -6 | 0.85 |
| O=C(N[C@@H]1C[C@H](Cn2cc(C3CC3)nn2)[C@@H](O)[C@H]1O)c1cccnc1 | 18 | -2.04 |
| COc1cccc(CCCN2CCC[C@@H]2C(=O)O)c1 | -18 | 2.1 |
| C[C@@H](CN1CCCCCC1)NCCc1cnn(C)c1 | -1 | 0.16 |
| CCCc1nnc(N2CCCO[C@@H](CN3CCOCC3)C2)o1 | 4 | -0.62 |
| CC(=O)Nc1ccc(S(=O)(=O)NCc2ccc(C(=O)NC3CCC(C)CC3)cc2)cc1 (stereo not drawn) | 39 | -5.3 |
| O=C(Nc1cccc(Cl)c1)Nc1cccc(-c2cnc3n2CCC3)c1 | 38 | -6.91 |
| Cc1ccc(-c2nc3cc(C(=O)N4CCC([C@H](C)C(=O)NC5CCCC5)CC4)ccc3o2)cc1 | -8 | 1.17 |
| CC(=O)N[C@H]1C[C@@H](c2ccccc2OCCO)O[C@@H](C2CCCCC2)C1 | 4 | -0.42 |
| COCC(=O)N(C)[C@@H](C(N)=O)c1cccc(Br)c1 | -8 | 1.22 |
| Oc1cccc(O)c1CNc1ncnc2c1CCCC2 | 1 | -0.13 |
| CCn1nc(C)cc1C(=O)N[C@H]1CC2(CCCCC2)Oc2ccccc21 | -13 | 1.49 |
| Cc1nnnn1CCc1cc(Cl)c2c(c1)OCCCO2 | -18 | 2.32 |
| CCOC(C)c1noc(CN2CC(c3ccccc3Cl)OCC2(C)C)n1 (stereo not drawn) | -8 | 0.89 |
| COc1cccc(N2CCN(C(=O)[C@H]3CCCN(C(=O)c4ccc(Cl)cc4)C3)CC2)c1 | -5 | 0.7 |
| Cn1nc(NC(=O)N2CC[C@H](O)C2(C)C)cc1C1CC1 | 16 | -2.03 |

| Compound | % Inhibition [%] | Z score |
| --- | --- | --- |
| Cc1ccc(Cn2cc(S(=O)(=O)c3cccc(Cl)c3)c(=O)c3cc(F)c(N4CCOCC4)cc32)cc1 | -17 | 2.12 |
| CN(C)S(=O)(=O)N1C[C@H]2CC[C@@H](C1)N(C(=O)Cc1cccs1)C2 | -5 | 0.84 |
| CN1CC[C@H](CNC(=O)c2ccc(Oc3ccccc3)o2)C1 | 0 | -0.05 |
| Cc1noc(CCN[C@H]2CCCN(C(=O)OC(C)(C)C)C2)n1 | -3 | 0.27 |
| Cc1cc(N2CCN(c3cc(Cl)ccc3C)CC2)n2nc(-c3ccccc3)cc2n1 | 0 | -0.08 |
| Cc1[nH]nc(CCc2nc(-c3ccco3)nn2[C@H]2CCS(=O)(=O)C2)c1C | -6 | 0.76 |
| CC(C)c1nsc(CN2CCN(Cc3cn[nH]c3)CC2)n1 | 0 | 0.01 |
| CN1CCN(C[C@]2(O)CCCN(Cc3ccc(F)cc3)C2=O)CC1 | -11 | 1.46 |
| O=C1C[C@H](c2noc(C3(n4cnnn4)CC3)n2)CN1c1ccccc1 | 7 | -1.03 |
| Cc1cccc(OC2CN(CCC(=O)NC3CC3)C2)c1 | -4 | 0.6 |
| Cc1nc(N2CCC[C@H]2C2CCCC2)c2cnn(C)c2n1 | -3 | 0.59 |
| O=C(NCCc1ccccc1)Nc1cnn(-c2ncc(N3CCCCC3)cn2)c1 | -2 | 0.3 |
| CC(NC(C)c1ccnc(O)c1)c1ccc(OC(F)F)cc1 (stereo not drawn) | -5 | 0.6 |
| COCC(=O)N1CCC2(CC1)C[C@@H](CCOCC1CC1)CCO2 | -1 | 0.18 |
| CC(C)(C)c1cccc(OCCNC(=O)N2CC(C(C)(C)O)C2)c1 | -6 | 0.65 |
| CN1C(=O)[C@@H]2CCCCN2c2ccc(C(=O)N3CCN(C(=O)c4ccco4)CC3)cc21 | 1 | -0.14 |
| O=C(c1ccncc1)N1CCC(F)(C(=O)N2CCCC2)CC1 | -7 | 0.95 |
| CC1CCC2(CC1)CC(=O)N(CC(=O)NCC1CCC1)C2=O (stereo not drawn) | -8 | 1.1 |
| CCc1nc(-c2ccccc2)nc(N2CCN(C(=O)c3ccc(F)cc3)CC2)c1Cc1cc(C)ccc1C | -11 | 1.18 |
| C=CCC[C@@H](CO)NCc1cccc(F)c1OCC(F)(F)F | -2 | 0.26 |
| CN(C(=O)c1ccc(Cl)s1)S(C)(=O)=O | -6 | 1.35 |

| Compound | % Inhibition [%] | Z score |
| --- | --- | --- |
| O=C(N[C@H]1CC[C@@H]2CCC[C@@H]21)c1ccc2cc[nH]c2c1 | -11 | 2.13 |
| COc1ccc(CCNC(=O)C2CCC(c3ccc(F)c(C)c3)N(C(C)=O)C2)cc1 (stereo not drawn) | 2 | -0.27 |
| CCc1nnc(-c2ccc3ccn(CC(=O)Nc4ccccc4C)c3c2)o1 | -12 | 1.48 |
| CCN(CC)S(=O)(=O)c1ccc(CNC(=O)c2cc(C3CC3)nc3c2cnn3C(C)C)cc1 | -6 | 1.03 |
| Cc1cc(C)cc(NC(=O)c2cn3c4c(cccc4c2=O)C[C@@H]3C)c1 | 7 | -0.83 |
| Cn1cc(C2CC2C(=O)N2CCCC(C3NC(=O)NC3=O)C2)cn1 (stereo not drawn) | -9 | 1.01 |
| c1ccc(-c2noc([C@@H]3COc4ccccc4O3)n2)cc1 | -3 | 0.61 |
| CC(C)CCN(Cc1nc(-c2ccco2)no1)C1CC1 | -6 | 0.74 |
| Cc1cc(C)n(C(C)CC(=O)NC[C@@H]2CCO[C@H]2c2ccnn2C)n1 (stereo partly drawn) | -2 | 0.22 |
| COCCN1CCC[C@H](NS(=O)(=O)c2c(C)nn(C)c2C)C1 | 2 | -0.22 |
| CCOc1ccc(C(=O)NC(CC)[C@H]2C[C@H](O)C2)o1 (stereo partly drawn) | 6 | -1.21 |
| CCN(Cc1ccccn1)C(=O)Nc1cccc(N(C)CC)c1 | -12 | 1.6 |
| C[C@@H]1CN(CCN(C)S(=O)(=O)c2ccc3c(c2)CCC3)C[C@H](C)O1 | -6 | 1.04 |
| CCCC[C@H](N)C(=O)N1CCC(n2cccn2)CC1 | -2 | 0.14 |
| CCc1ccc(CN2CCC[C@@H]2Cn2ccnc2)o1 | -2 | 0.31 |
| O=C(c1cccc(S(=O)(=O)NCC2CC2)c1)N1CCC[C@H]1c1ccncc1 | -2 | 0.31 |
| CCNCC#CCOc1ccc(Cl)c(Cl)c1 | -2 | 0.36 |
| CN(C)[C@@H](CNC(=O)COc1ccccc1)c1ccsc1 | -10 | 1.12 |
| O=C(NCc1ccccc1)C1CCN(Cc2nc3ccccc3o2)CC1 | 5 | -0.71 |
| C[C@H]1c2cccn2CCN1CCn1cccn1 | -10 | 1.02 |
| CCn1cc(S(=O)(=O)N[C@H](c2nccn2C)C2CC2)cn1 | -9 | 1.62 |

| Compound | % Inhibition [%] | Z score |
| --- | --- | --- |
| O=C(NCc1cc2n(n1)CCCN(Cc1ccc3occc3c1)C2)C1CCC1 | -2 | 0.23 |
| C1CCC(c2nc3c(c(NCCN4CCOCC4)n2)CCOCC3)C1 | 2 | -0.21 |
| CCN(C)CC(=O)N1CCC[C@@]2(CCC(=O)N(Cc3ccccn3)C2)C1 | 2 | -0.32 |
| CC(C)[C@H](NCc1ccc2c(c1)CCO2)C(=O)OC(C)(C)C | -5 | 0.68 |
| COc1ccc(NC(=O)[C@H](C)OCC(C)C)c(OC)c1 | 9 | -1.16 |
| COc1cccc(C(=O)NCc2ccc3c(c2)CCN3C(=O)CC(C)C)c1 | -12 | 1.87 |
| Cc1nc(O)ccc1C(=O)N(C)C1CCOC(c2ccc(F)cc2)C1 (stereo not drawn) | 5 | -0.8 |
| O=S(=O)(CCn1nnc2c1CCCC2)C1CCCCC1 | -1 | 0.2 |
| COCCNC(=O)c1cc(NS(=O)(=O)c2ccc(C(C)(C)C)cc2)cnc1N1CCNCC1 | -8 | 1.1 |
| CCCn1cc(C2=CCN(C(=O)Nc3cccc(C)c3C)CC2)c2cccnc21 | -10 | 1.27 |
| CCn1nc(C)c(NS(=O)(=O)c2cn[nH]c2C(C)(C)C)c1C | 0 | 0.06 |
| CC(Cc1ccsc1)NC(=O)C(C)N1C(=O)CCC1=O (stereo not drawn) | -8 | 1.15 |
| Cc1ccc(CCC(=O)N2CCc3sccc3[C@@H]2C)cc1Cl | -19 | 3.05 |
| CCOc1ccccc1C(=O)Nc1cc(-c2ccsc2)no1 | -23 | 2.21 |
| COc1cccc([C@@H]2CNC(=O)c3nc(-c4noc(C)n4)[nH]c3C2)c1 | -10 | 1.81 |
| COc1cccc(-c2nc3ccc(F)cc3[nH]2)c1OCCn1ccnc1 | -11 | 1.17 |
| Cn1cnc(C(=O)N2C3CCC2CC(F)C3)c1 (stereo not drawn) | 8 | -1.47 |
| COc1ccc(C(=O)N2C[C@]3(C)C[C@H]2CC(C)(C)C3)cc1OC1CCN(C(C)C)CC1 | 17 | -2.25 |
| O=C(NC1=NN(c2ccccc2)C(=O)[C@@]1(O)S(=O)(=O)O)c1ccccc1 | -1 | 0.14 |
| CC(C)C1CN(C(=O)NC2CCOC(c3ccnn3C)C2)C1C(C)C (stereo not drawn) | 3 | -0.61 |
| O=C(CN1C(=O)CNC1=O)N(CCOc1ccccc1)C[C@H]1CCCO1 | -2 | 0.26 |
